Hit rate of the full screen: of about 230,000 compounds, about 3,600 (1.6%) were called active. The inconclusive results got no clear call from the source; some entries with a clear call stand among them for comparison. Calls come from the whole dose curve; as a rule, active = well fitted inhibition curve with a large enough effect (not every such curve was filed as active); inconclusive = small, poorly fitted or top-dose-only effect, or another doubt; inactive = no such curve, though single readings can be large or run the other way. Potencies beside an inconclusive call are fits to weak or partial responses and may not hold up.
Each molecule was assayed against Lysine-specific demethylase 4E (Homo sapiens) (UniProt B2RXH2) (assay: qHTS Assay for Inhibitors of Human Jumonji Domain Containing 2E (JMJD2E)). Conditions: JMJD2E catalytic domain, FDH-coupled NADH fluorescence (FDH is formaldehyde dehydrogenase); series mostly up to 57.1 µM; activity change, negative = inhibition: at the top concentration.
Chain of UniProt B2RXH2 (B2RXH2 whole entry, looked up, the tested form may be a part): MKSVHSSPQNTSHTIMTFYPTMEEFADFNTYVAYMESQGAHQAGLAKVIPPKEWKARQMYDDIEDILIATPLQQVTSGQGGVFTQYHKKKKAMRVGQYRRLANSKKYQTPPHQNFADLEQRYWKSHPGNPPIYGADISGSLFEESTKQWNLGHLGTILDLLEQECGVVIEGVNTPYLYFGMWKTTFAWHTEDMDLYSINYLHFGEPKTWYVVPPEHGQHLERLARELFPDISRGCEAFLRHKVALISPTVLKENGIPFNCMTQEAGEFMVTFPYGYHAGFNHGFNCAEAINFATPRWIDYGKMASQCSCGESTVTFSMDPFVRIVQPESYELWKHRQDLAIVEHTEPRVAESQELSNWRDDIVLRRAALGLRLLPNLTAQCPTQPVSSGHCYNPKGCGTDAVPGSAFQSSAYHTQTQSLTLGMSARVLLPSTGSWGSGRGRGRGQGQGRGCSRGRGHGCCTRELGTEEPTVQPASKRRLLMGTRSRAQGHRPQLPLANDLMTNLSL
In the case of `COc1cc(OC)cc(C(=O)NCC(=O)OCC(=O)/C=C2/N(C)c3ccccc3C2(C)C)c1`, the Potency is reported as inconclusive: 28.2 µM [inhibitor, single point]. `O=[N+]([O-])c1cc(C(F)(F)F)cc([N+](=O)[O-])c1NN=C1CCCCC1` was tested, and the Potency was inconclusive: 2.51 µM [inhibitor, full curve]. For `CCOC(=O)C1CCCN(Cc2cc(=O)oc3cc(C)c(C)cc23)C1` (stereo unspecified), the “activity change, negative = inhibition” value was inactive: -12.8%. For `Cc1cccc2cc(COC(=O)COc3ccccc3)c(=O)[nH]c12`, the Potency was inconclusive: 5.01 µM [inhibitor, single point]. For `COC(=O)Cc1[nH]n(-c2nc3ccccc3s2)c(=O)c1C(C)=O`, the Potency was inconclusive: 39.8 µM [inhibitor, single point]. `COCCNC(=O)c1cc(-c2ccccc2OC)on1` was tested, and the Potency was inconclusive: 39.8 µM [inhibitor, single point]. For `O=C(COc1cccc2ccccc12)N/N=C/c1ccncc1`, the Potency was inconclusive: 39.8 µM [inhibitor, single point]. For `CCOc1ccc(C(=O)c2cc3ccc(O)cc3oc2=O)cc1`, the Potency was inconclusive: 28.2 µM [inhibitor, single point]. In the case of `CC(=O)Nc1ccc(S(=O)(=O)/N=C2/NC(=O)/C(=C\c3ccco3)S2)cc1`, the Potency is reported as inconclusive: 39.8 µM [inhibitor, single point]. In the case of `CC1Cc2ccccc2N1C(=O)CSc1ccccc1` (stereo unspecified), the “activity change, negative = inhibition” value is reported as inactive: -3.46%. `c1ccc2c(N3CCCCC3)nc(N3CCCC3)nc2c1` was tested, and the “activity change, negative = inhibition” value was inactive: -13.5%. With `Cc1c(NC(=S)N/N=C\c2ccccc2O)c(=O)n(-c2ccccc2)n1C` the Potency was inconclusive: 14.1 µM [inhibitor, partial curve]. `Cn1[nH]c(CSc2ccc(Cl)cc2)cc1=O` was tested, and the Potency was inconclusive: 0.501 µM [inhibitor, full curve]. In the case of `C=CCc1cccc(/C=N/NC(=O)c2ccccc2OC)c1O`, the Potency is reported as active: 31.6 µM. `CC1(C)Cc2nc3nc(SCC(=O)NCCc4ccccc4)n(-c4ccccc4)c(=O)c3cc2CO1` was tested, and the Potency was inconclusive: 31.6 µM [inhibitor, partial curve]. In the case of `C/C=C/c1ccc(OCC(O)CN2CCCCC2CC)c(OC)c1` (stereo unspecified), the Potency is reported as inconclusive: 31.6 µM [inhibitor, single point]. `CC(C)(C)C1CCc2c(sc3nc(SCC(=O)O)nc(N)c23)C1` (stereo unspecified) was tested, and the Potency was inconclusive: 28.2 µM [inhibitor, single point]. `O=C1OCC2=C1C(c1ccc(F)cc1)c1cc3c(cc1N2)OCCO3` (stereo unspecified) was tested, and the Potency was inconclusive: 25.1 µM [inhibitor, partial curve]. For `Cc1ccc(-c2cc(C(F)(F)F)n3ncc(C(=O)N4CCCCC4c4cccnc4)c3n2)cc1` (stereo unspecified), the Potency was inconclusive: 39.8 µM [inhibitor, single point]. In the case of `CCN(CC)S(=O)(=O)c1ccc(N2CCOCC2)c(NS(=O)(=O)c2ccc(OC)cc2)c1`, the “activity change, negative = inhibition” value is reported as inactive: 1.09%. With `O=C(NNC(=O)c1cc(O)c(O)c(O)c1)NC1CCCCC1` the Potency was active: 7.08 µM. With `COC(=O)c1c(NC(C)=O)sc(C(=O)Nc2ccccc2OC)c1C` the Potency was inconclusive: 35.5 µM [inhibitor, single point]. In the case of `CCCCCCCCSc1nnc(CSc2nc3nc(C)cc(C)n3n2)o1`, the “activity change, negative = inhibition” value is reported as inactive: 4.87%. `Cc1ccc(NC(=O)CC2S/C(=N/N=C/c3c[nH]c4ccccc34)NC2=O)cc1` (stereo unspecified) was tested, and the Potency was inconclusive: 25.1 µM [inhibitor, single point]. `COc1ccc(/C=N/Nc2cc(C)nc(NS(=O)(=O)c3ccc(C)cc3)n2)cc1` was tested, and the Potency was inconclusive: 39.8 µM [inhibitor, single point]. For `CC(C)N(C(=O)Nc1ccc2nsnc2c1)C(C)C`, the “activity change, negative = inhibition” value was inactive: 1.02%. For `CCC(C)Sc1nc2c(c(=O)[nH]c(=O)n2C)n1CCc1ccccc1` (stereo unspecified), the “activity change, negative = inhibition” value was inactive: 6.9%. `COc1ccc(-c2c(C#N)c(N)nc3c2CCCCCC3)cc1OC` was tested, and the Potency was inconclusive: 8.91 µM [inhibitor, single point]. In the case of `Cn1c(-c2ccc(F)cc2)cnc1SCC(=O)N1CCCc2ccccc21`, the “activity change, negative = inhibition” value is reported as inactive: 9.14%. For `Cc1ccc(N=Cc2cc(Cl)cc(Cl)c2O)nc1`, the Potency was inconclusive: 28.2 µM [inhibitor, partial curve]. `Cc1ccc(-c2nnc3sc(-c4ccncc4)nn23)cc1` was tested, and the Potency was inconclusive: 39.8 µM [inhibitor, single point]. In the case of `Cc1ccc(CNC(=O)c2ccccc2NS(C)(=O)=O)cc1`, the Potency is reported as inconclusive: 31.6 µM [inhibitor, partial curve]. `O=C1CN(C(=O)c2ccc(Cl)c(S(=O)(=O)N3CCc4ccccc43)c2)c2ccccc2N1` was tested, and the Potency was inconclusive: 0.891 µM [inhibitor, single point]. In the case of `CCC(=O)Oc1ccc2c(C)cc(=O)oc2c1C`, the Potency is reported as inconclusive: 31.6 µM [inhibitor, partial curve]. In the case of `Cc1onc(-c2ccccc2Cl)c1C(=O)Nc1sc2c(c1C#N)CCC2`, the “activity change, negative = inhibition” value is reported as inactive: 4.33%. For `CC(C)[n+]1ccn(C2=C([O-])c3ccccc3C(=O)/C2=N\S(=O)(=O)c2ccccc2)c1`, the Potency was inconclusive: 14.1 µM [inhibitor, partial curve]. In the case of `O=C1CCCc2c1cc(C(=O)NC1CCSC1=O)c(=O)n2-c1ccccc1` (stereo unspecified), the Potency is reported as inconclusive: 28.2 µM [inhibitor, partial curve]. With `O=C(c1cc(=O)[nH]c2ccccc12)N1CCN(c2ccccc2)CC1` the “activity change, negative = inhibition” value was inactive: -29.3%. For `COc1ccc2nc3sc(C(=O)NCCN4CCc5ccccc5C4)cc3cc2c1`, the Potency was inconclusive: 28.2 µM [inhibitor, partial curve]. With `Nc1c(Cl)ncnc1N/N=C/c1ccc2ccccc2n1` the Potency was inconclusive: 35.5 µM [inhibitor, single point]. `CCS(=O)(=O)c1nc(S(=O)(=O)c2ccc(Cl)cc2)c(NCc2ccccn2)s1` was tested, and the “activity change, negative = inhibition” value was inactive: -1.39%. In the case of `Cc1nnc2nc(-c3ccccc3)nc(-c3ccccc3)n12`, the Potency is reported as inconclusive: 31.6 µM [inhibitor, partial curve]. For `C=CCC(C)(O)c1ccc(OC)cc1` (stereo unspecified), the “activity change, negative = inhibition” value was inactive: -3.11%. For `CC(C)C(=O)NC(c1ccccc1)c1cc([N+](=O)[O-])c2cccnc2c1O` (stereo unspecified), the Potency was inconclusive: 25.1 µM [inhibitor, single point]. `CC(=O)C1=C(O)C=C(c2ccco2)CC1c1ccco1` (stereo unspecified) was tested, and the Potency was inconclusive: 39.8 µM [inhibitor, single point]. For `CCN(CC)CCCN1C(=O)c2oc3ccccc3c(=O)c2C1c1cccnc1` (stereo unspecified), the Potency was inconclusive: 31.6 µM [inhibitor, single point]. In the case of `COc1ccc(-c2cc(C(F)(F)F)nc(SCC(=O)Nc3cc(C)on3)n2)cc1`, the Potency is reported as inconclusive: 8.91 µM [inhibitor, partial curve]. `COC(=O)c1[nH]c2cc(OC)c(OC)cc2c1NC(=O)Oc1ccccc1` was tested, and the Potency was inconclusive: 31.6 µM [inhibitor, partial curve]. For `C[N+](C)(C)CCN(Cc1ccc(Cl)cc1)c1ccccn1`, the Potency was inconclusive: 22.4 µM [inhibitor, partial curve]. With `N#Cc1c(SCC(=O)Nc2nccs2)nc2c(c1-c1ccco1)CCCC2` the “activity change, negative = inhibition” value was inactive: 4.15%. In the case of `COC(=O)C1=C(Nc2ccccc2NC(=O)c2ccccc2C(=O)O)CSC1`, the Potency is reported as inconclusive: 35.5 µM [inhibitor, single point]. In the case of `CCOC(=O)N1CCN(Cc2cc(=O)oc3ccc(Cl)cc23)CC1`, the Potency is reported as inconclusive: 22.4 µM [inhibitor, single point]. With `COC(=O)c1[nH]c2cc(C)ccc2c1NC(=O)CN1CCOCC1` the Potency was inconclusive: 35.5 µM [inhibitor, single point]. `Cc1cc(NC(=O)C(C)C)ncc1NC(=O)c1ccccn1` was tested, and the “activity change, negative = inhibition” value was inactive: -2.51%. `Nc1ccccc1C(=O)NCc1ccccc1` was tested, and the Potency was inconclusive: 25.1 µM [inhibitor, partial curve]. For `Cc1cc(C)nc(SCC(=O)Nc2nc(-c3ccccc3)c(-c3ccccc3)o2)n1`, the Potency was inconclusive: 28.2 µM [inhibitor, partial curve]. For `CCOC(=O)c1c[nH]n2c(=O)cc(C)nc12`, the Potency was inconclusive: 25.1 µM [inhibitor, partial curve]. For `Cc1cc(Cl)nc2ccc(Cc3ccc4nc(Cl)cc(C)c4c3)cc12`, the Potency was inconclusive: 39.8 µM [inhibitor, single point]. For `COc1ccc(N=C/C=C2\C=C(c3ccccc3)OC(C)(C)O2)cc1`, the “activity change, negative = inhibition” value was inactive: -16.4%. For `CC(C)[C@H](NC(=O)c1ccc(F)cc1)C(=O)NC1=NCCS1`, the “activity change, negative = inhibition” value was inactive: 12.8%. `COc1ccc(N2CCN(c3oc(-c4ccco4)nc3C#N)CC2)cc1` was tested, and the Potency was inconclusive: 35.5 µM [inhibitor, single point]. `CCOc1cc(/C=C2/C(=O)N(c3ccccc3)N=C2C)ccc1OC(=O)c1cccs1` was tested, and the “activity change, negative = inhibition” value was inactive: -7.27%. In the case of `CCCCSc1nc(C)cc(SCC(=O)N/N=C/c2cccc(OC)c2O)n1`, the Potency is reported as inconclusive: 31.6 µM [inhibitor, single point]. With `Cc1nnsc1C(=O)N/N=C/c1ccc2ccccc2c1O` the Potency was active: 22.4 µM. In the case of `Cc1cc(C)n(C(=O)c2cc3c(s2)CCCC3)n1`, the “activity change, negative = inhibition” value is reported as inactive: -0.403%. For `Cc1ccc(NC(=O)CSc2nnc(-c3ccccn3)n2C)cc1`, the “activity change, negative = inhibition” value was inactive: -2.59%. `O=C(Cn1nc(C(F)F)cc1C(F)F)NNC(=S)Nc1ccc([N+](=O)[O-])cc1` was tested, and the “activity change, negative = inhibition” value was inactive: 12.4%. For `CCCCN(C(=O)CSc1nnc(Nc2ccc(C)c(C)c2)s1)c1c(N)n(Cc2ccccc2)c(=O)[nH]c1=O`, the Potency was inconclusive: 39.8 µM [inhibitor, single point]. For `CCOC(=O)c1ccc2c(c1)nc(SCc1cn3ccsc3n1)n2CC`, the “activity change, negative = inhibition” value was inactive: 1.8%. In the case of `CCOC(=O)c1csc(NC(=O)c2ccc(S(=O)(=O)N3CCCC3)cc2)n1`, the Potency is reported as inconclusive: 8.91 µM [inhibitor, single point]. `C=CCn1c(=O)c2ccccc2n2c(SC(C)C(=O)Nc3nc(-c4ccccc4)cs3)nnc12` (stereo unspecified) was tested, and the Potency was inconclusive: 39.8 µM [inhibitor, single point].

— PubChem BioAssay AID2147 (National Center for Advancing Translational Sciences (NCATS), 2009)
Note: nearly all actives have a fitted effect of over 50% in size.
Potency is the fitted concentration of half-maximal effect; tags give direction and shape of the fitted curve.
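Throughout, for activity change, negative = inhibition: 0% = wells with enzyme and -100% = buffer wells without enzyme.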
